Data reported in the RNAGym collection of RNA variant scans (doi:10.1073/pnas.2313332121).
Variants at the floor of the assay are shown more often than the library holds them.

B1: TPR 5TU (parent)
chain: GGAUCUUCUCGAUCUAACAAAAAAGACAAAUCUGCCACAAAGCUUGAGAGCAUCUUCGGAUGCAGAGGCGGCAGCCUUCGGUGGCGCGAUAGCGCCAACGUUCUCAACUAUGACACGCAAAACGCGUGCUCCGUUGAAUGGAGUUUAUCAUG

Variants of: B1
Test: polymerase ribozyme fitness, log enrichment relative to wild type (log ratio); higher = more active; in vitro selection for triplet polymerase activity
Outline: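 For each subunit of a heterodimeric triplet polymerase ribozyme, a mutant library was built by PCR and transcribed, then taken through a single in vitro selection round in triplicate. Selection involved annealing to a biotinylated primer, the partner subunit and triplets, incubation frozen at −7 °C, gel excision of extended constructs, capture on streptavidin beads and RT-PCR. Genotypes were retained after Illumina sequencing of inputs and outputs only with ≥10 input reads and ≥1 read in each output. Fitness is defined as the logarithm of a genotype's enrichment relative to wild-type enrichment, using inverse-variance-weighted averages across replicates, with the logarithm taken to base 2.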

Row | Variant | polymerase ribozyme fitness (log ratio)
1 | GGAUCUUCUCGAUCUAACAAAAAAGACAAAUCUGCCAUAAAGCUUGAGAGCAUCUUCGGAUGCAGAGGCGGCAGCCUUCGAUGGCGCGAUAGCGCCAAGGUUCUCAACUAUGACACGCAUAACCCGUGCUCCGUUGAAUGGAGUUUAUCAUG | -3.02
2 | GGAUCUUCUCGAUCUAACAAAAAAGACAAAUCUGCCAUAAAGCUUGAGAGCAUCUUCGGAUGCAGAGGCGGCAGCCUUCGCUGGCGCGAUAGCGCCAACGUUCUCAACUAGGACACGCAAAACGCGUGCUCCGUUGAGUGGAGUUUAUCAUG | ≤ -4.2
3 | GGAUCUUCUCGAUCUAACAAAAAAGACAAAUCUGCCAUAAAGCUUGAGAGCAUCUUCGGAUGCAGAGGCGGCAGCCUUCGGUGUCGGGAUAGCGCCAACGUUCUCAACUAUGACACGCAAAACGCGUGCUCCGUUGAAUGGAGCUUAUGAUG | ≤ -4.2
4 | GGAUCUUCUCGAUCUAACAAAAAAGACAAAUCUGCCAUAAAGCUUGAGAGCAUCUUCGGAUGCAGAGGCGGCAGCCUUCGGUGGCGCGAUAACGCCAACGUUCUCAACUAUGACACGCAAAACGCGUGCUCCGUUGAAUGGAGUUAAUCAUG | -2.92
5 | GGAUCUUCUCGAUCUAACAAAAAAGACAAAUCUGCCAUAAAGCAUGAGAGCAUCUUCGGAUGCAGAGGCGGCAGCCUUCGGUGGAGCGAUAGCGCCAACGUUCUCAACUAUGACACUCAAAACGCGUGCUCCGUUGAAUGGAGUUUAUGAUG | ≤ -4.2
6 | GGAUCUUCUCGAUCUAACAAAAAAGACAAAUCUGCCAUAAAGCCUGAGUACAUCUUCGGAUGCAGAGGCGGCAGCCGUCGGUGGCGCGAUAGUGCCAACGUUCUCAACUAUGACACGCAAUACGCGUGCUCCGUUGAAUGGAGUAUAUCAUG | ≤ -4.2
7 | GGAUCUUCUCGAUCUAACAAAAAAGACAAAUCUGCCAUAAAGCUAGAGAGGAUCUUCGGAUGCAGAGGCGGCAGCCUUCGCUGGCGCGAUAGCGCCAACGCUCUCCACUAUGACACGCAAAACGCGUGCUCCGUUGGAUGGAACUUAUCAUG | ≤ -4.2
8 | GGAUCUUCUCGAUCUAACAAAAAAGACAAAUCUGCCAUAAAGCUAGAGAGCAUCUUCGGAUGCAGAGCCGGCAGCCUUCGGUGGCGCGAUAGCGCCAACGUGCUCAACUAUGACACGCAAAACGCGUGCUCCGUUGAGUGGAGUUUAUCAUG | ≤ -4.2
9 | GGAUCUUCUCGAUCUAACAAAAAAGACAAAUCUGCCAUAAAGCUAGAGAGCAUCUUCGGAUGCAGAGGCGGCAGCCUUCGGUGGCGCGAUACCGCCAACGUUCUCAACUAUGACACGCAAAACGCGUGCUCCGUUGAAUGGAGUUUAUCAUG | -4.13
10 | GGAUCUUCUCGAUCUAACAAAAAAGACAAAUCUGCCAUAAAGCUUGAGAGCAUCAUCGGAUGCAGAGGCGGCGGCCUUCGGUGGCGCGAUAGCGUCAACGUUCUCAACUAUGACUCGCAAAACCCGUGCUCCGUUGAAUGGAGUUUAUCAUG | ≤ -4.2
11 | GGAUCUUCUCGAUCUAACAAAAAAGACAAAUCUGCCAUAAAGCUUGAGAGCAUCAUCGGAUGCAGAGGCGGCAGCCUUCGGUGGCGGGAUAGCGCCAACGUUCUCAAGUAUUACACGCAAAACGCGUGCUCCUUUGAAUGGAGUUUAUAAUG | ≤ -4.2
12 | GGAUCUUCUCGAUCUAACAAAAAAGACAAAUCUGCCAUAAAGCUUGAGAGCAUCGUCGGAUGCAGAGGCGGCAGCCUUCGGUGCCGCGAUAGCGCCAUCGUUCUCAACUAUGACACGCAAAACGCGUGCUCCGUUGAAUGGAGUUUAUCAUG | -1
13 | GGAUCUUCUCGAUCUAACAAAAAAGACAAAUCUGCCAUAAAGCUUGAGAGCAUCUACGGAUGCAGAGGCGGCAGCCUUCGGUGGCGCGAUAGCGCCAACGUUCUCAACUAUGACACGCAAAACGCGUGCUCCGUUGAAUGGAGUUUCUCAUG | -0.21
14 | GGAUCUUCUCGAUCUAACAAAAAAGACAAAUCUGCCAUAAAGCUUGAGAGCAUCUACGGAUGCAGAGGCGGCAGCCUUCGGUGGCGCGAUAGCGCCAACGUUCUCAAAUAUGUCACGCAAAACGCGUGCUCCGUUGAAUGGAGUUUAUCAUG | ≤ -4.2
15 | GGAUCUUCUCGAUCUAACAAAAAAGACAAAUCUGCCAUAAAGCUUGAGAGCAUCUACGGAUGCAGAGGCCGCAGCCUUCGGUGGCGCGAUUGCGCCAACGUUCACACCUAUGACACGCAAAACGCGUGCUCCGUUGAAUGGAGUAUAUCAUG | ≤ -4.2
16 | GGAUCUUCUCGAUCUAACAAAAAAGACAAAUCUGCCAUAAAGCUUGAGAGCAUCUACGGAUGCAGAGGCGGCAGCCUUCGGUGGCGCAAUAGCGCCAACGUUCUCAAUUAUGACACGCAAAACACGUGCUCCGUUGAAUGGAGUGUAUCAUG | ≤ -4.2
17 | GGAUCUUCUCGAUCUAACAAAAAAGACAAAUCUGCCAUAAAGCUUGAGAGCAUCUUCGGAAGCAGAGGCGGCAGCCUUCGGUGGCGCGAUAGCGCCAACGUUCUCCACUAUGACACGCAAAACGCGUGCUCCGUUGAAUGAAGUUUAUCAUG | -3.01
18 | GGAUCUUCUCGAUCUAACAAAAAAGACAAAUCUGCCAUAAAGCUUGAGAGCAUCUUCGGAAGCAGAGGAGGCAGCCUUCGGUGGCGCGAUAGCCCCAACGUUCUCAACUAUGACACGCAAAACGCGGGCUCCGUUGAAUGGAGUUUAUCAUG | ≤ -4.2
19 | GGAUCUUCUCGAUCUAACAAAAAAGACAAAUCUGCCAUAAAGCUUGAGAGCAUCUUCGGAUGCAGAGGCGGCAGCCUUCGGCGGUGCGAGAGCGCCAAUGUUCUUAAGUAUGACACGCAGAACGCGUGCUCCGUUGAAUGGAGUUUAUCAUG | ≤ -4.2

Row | Variant | polymerase ribozyme fitness (log ratio)
20 | GGAUCUUCUCGAUCUAACAAAAAAGACAAAUCUGCCAUAAAGCUUGAGAGCAUCUUCGGAUGCAGAGGCGGCAGCCUUCGGUGGCGCGAUAGCGCCAACGUUCUCAACUAUGACACGCAAAACGCGUGCUCCGUUGAAUGGAGUUUACCAUG | -1.36
21 | GGAUCUUCUCGAUCUAACAAAAAAGACAAAUCUGCCACCACGCUUGAGAGCAUCUACGGAUGCAGAGGCGGCAGCCUUCGGUGGCGCGAUAGGGCCAUCGCUCUCAACUAUGACACGCAAAAUGCGUGCUCCGUUGAAUGGAGUUUAUCAUG | ≤ -4.2
22 | GGAUCUUCUCGAUCUAACAAAAAAGACAAAUCUGCCACCAAGCUUGCGAGCAUCUUCGGAUGCAGAGGCGGCAGACUUCGGUGGCGCGAUAGCGCCAACGUUCUCAACUAUGACACGCAGAACGCGUGCUCCGUUGAAUGGAGUUUAUCAUG | ≤ -4.2
23 | GGAUCUUCUCGAUCUAACAAAAAAGACAAAUCUGCCACCAAGCUUGGGAGCAUCUUCGGAUGCAGAGGCGGCAGCUUUCGGUGACGCGAUAGCGCCAACGUUAUCAACUAUGACACGCAAAACGCGUGCUCCGUUGAAUGGCGUUUAUCAUG | ≤ -4.2
24 | GGAUCUUCUCGAUCUAACAAAAAAGACAAAUCUGCCACCAAGCUUGGGAGCAUCUUCGUAUGCAGAGGCGGCAGCCUUCGGUGGCGCGAUAUCGCCAACGUUCUCAACUAUGAAACGCAAAACGCGUACUCCGUUGAAGGGAGUUUAUCCUG | ≤ -4.2
25 | GGAUCUUCUCGAUCUAACAAAAAAGACAAAUCUGCCACCAAGCUUGAGAGCCUCUUCGGAUGCAGAGGCGGCAGCCUUCGGUGUCGCGAUAGCGCCAACGUUCUCAAUUAUGACACGCAAAACGCGUGCUCCGUUGAAUGGAGUUUAUCAUG | ≤ -4.2
26 | GGAUCUUCUCGAUCUAACAAAAAAGACAAAUCUGCCACCAAGCUUGAGAGCCACAUCGGAUGCAGAGGCGGCAGCCUUCGGUGGCGCGAUAGCGUCAGCGUUCUCAACUAUGACACGCAAAACGCGUGCUCCGUUGAAUGGAGUUUAUCAUG | ≤ -4.2
27 | GGAUCUUCUCGAUCUAACAAAAAAGACAAAUCUGCCACCAAGCUUGAGAGCGUCUUCGGAUGCGGAGGCGGCAGCCUUCGGUGGCUCGAUAGCGCCAACGUUCUCAACUAUGACACGCAAAACGCGUGCUCCGUUGCAUGGAGUUUAUCAUG | ≤ -4.2
28 | GGAUCUUCUCGAUCUAACAAAAAAGACAAAUCUGCCACCAAGCUUGAGAGCAUCUUCGGGUGCAGAGGCGGCAGCCUUCGGUGGCGUGAUAGCGCCAACGUUCUCAACUAUGACACGCAAAACGCGUGCUCCGUUGAAUGGAGUUUCUCAUG | -3.78
29 | GGAUCUUCUCGAUCUAACAAAAAAGACAAAUCUGCCACCAAGCUUGAGAGCAUCUUCGGAUGCAGAGGCGGCUGCCUUCGGUGGCGGGAUAGCGCCAACGUUCUCAACUAUGACACGCAAAACGCGUGCUCAGUUGAAUGGAGUUUAUCAUG | ≤ -4.2
30 | GGAUCUUCUCGAUCUAACAAAAAAGACAAAUCUGCCACCAAGCUUGAGAGCAUCUUCGGAUGCAGAGGCGGCAGCCUUCGGUGGCGCGUUAGCGCCAACGUUCUCAACUAUGACAUGCAAAACGCGUGCUCCGUUGAAUGGAGUUUAUCAUG | -2.02
31 | GGAUCUUCUCGAUCUAACAAAAAAGACAAAUCUGCCACCAAGCUUGAGAGCAUCUUCGGAUGCAGAGGCGGCAGCCUUCGGUGGCGCGAUUGCACCAACGUUCUCAACUAUGACACGCAAAACGCGUGCUCCCUUGAAUGGUGUAUAACAUG | ≤ -4.2
32 | GGAUCUUCUCGAUCUAACAAAAAAGACAAAUCUGCCACCAAGCUUGAGAGCAUCUUCGGAUGCAGAGGCGGCAGCCUUCGGUGGCGCGAUUGCGCCAACGUUCUCAACUAUGACACGCAAAACGCGUGCUCCGUUGAAUGGAGUUUAACAUG | ≤ -4.2
33 | GGAUCUUCUCGAUCUAACAAAAAAGACAAAUCUGCCACCAAGCUUGAGAGCAUCUUCGGAUGCAGAGGCGGCAGCCUUCGGUGGCGCGAUAGCGCCAACGUUCUCAACUAUGACACGCAAAACGCGUGCUCCGUUGUAUGGAGUUUAUCAUG | ≤ -4.2
34 | GGAUCUUCUCGAUCUAACAAAAAAGACAAAUCUGCCACCAAGAUGGAGAGCAUCUUCGGAUGCAGAGGCGGCAGCCUUCGGUGGCGCGAUGGUGCCAACGUUCUCAACUAUGACACGCAAAACGCGUGCUCCGUUGAAUGGAGUUUAUCAUG | ≤ -4.2
35 | GGAUCUUCUCGAUCUAACAAAAAAGACAAAUCUGCCACCAAGCUUGAGAGCAUAUUCGGAUGCACAGGCGGCAGCCUUCGGUGGCGCGAUAGAGCCAACGUUCUCAACUAUGACACGCAAAACUCGUGCUCCGUUGACUGGAGUUUAUCAUG | ≤ -4.2
36 | GGAUCUUCUCGAUCUAACAAAAAAGACAAAUCUGCCACCAAGCUUGAGAGCAUCUUCGGAUGAUGAGGCGGCAGCCUUCGGUGACGCGAUAGGGCCAACGUUCUCAACUAUGACACGCAAAACGCGUGCUCCGUUGAAUGGAGUUUAUCAUG | ≤ -4.2
37 | GGAUCUUCUCGAUCUAACAAAAAAGACAAAUCUGCCACCAAGCUUGAGAGCAUCUUCGGAUGCAGAGGCGGCAGCUUUCGGUUGCGCGAUAGCGCCAACGUUCCCAACUAUGACACGCAAAACGCGUGCUCCGUUGAAUGGAGUUUAUCAUG | ≤ -4.2
38 | GGAUCUUCUCGAUCUAACAAAAAAGACAAAUCUGCCACCAAGCUUGAGAGCAUCUUCGGAUGCAGAGGCGGCAGCCUUGGGUUGCGCGAUAGCGCCCACGUUCUCAACUAUGACACGCAAAACGCGUGCUCCGUUGAAUUGAGUUAAUCAUG | ≤ -4.2
